Data from the supplement of paper PMC3334620.
In all, about 33,000 sequences were measured (“E-score (-0.5 to 0.5)”: median about -0.054, highest 2% from about 0.39 on). Some of the results follow.

Molecular target: Ylr278c (UniProt Q05854)
Experiment: PBM E-score (8-mer binding enrichment) (E-score (-0.5 to 0.5)); higher = stronger / more preferred TF binding; most listed sequences are background and not binding sites
Conditions: protein concentration: 200 nM; construct: GST-DNA-binding domain
Method in brief: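 PURExpress in vitro transcription/translation supplied GST-tagged yeast transcription factors, either full-length or DNA-binding domain. Applied at about 100-200 nM to universal all-10-mer Agilent arrays double-stranded by primer extension, the bound protein was detected with fluorescent anti-GST. E-scores, modified Wilcoxon-Mann-Whitney statistics, were given by the Universal PBM Analysis Suite to ungapped eight-base words pooled with their reverse complements after masliner normalisation.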

Sequence | PBM E-score
CCTTGAGC | -0.214
CAAGAATA | 0.0577
ATCTACGC | 0.181
TGGTAGAA | -0.169
TAAAAGAA | -0.213
CCCTACCG | -0.00523
CATACTGC | -0.113
CAGGCGGG | 0.084
AACAGTCA | -0.258
ACAGTCAT | -0.24
ACCGCTCC | 0.172
AGTGGCAC | -0.174
CGGTAACC | 0.147
GTTCAAAC | 0.0451
ATGAAGAG | -0.0752
ATGACTCA | -0.267
CTTCGAAA | -0.221
AAGTGAGG | -0.242
TCCGACAA | 0.39
CCTGCCAC | -0.181
CTTTTCGC | 0.191
TCAAAACA | 0.00964
AATTTGTC | -0.0687
ATGCTCTA | -0.163
TATAAGAA | -0.0902

Sequence | PBM E-score
CGGGTGAG | 0.167
GAATGAAA | 0.0519
CTTATAAG | 0.0589
ACTAGATG | -0.252
CGGTGTCA | 0.0635
AACACTCC | 0.248
AAAGCTCC | 0.182
AACGGGTG | 0.107
CCCCGGCG | 0.348
ACCCGCTG | 0.0701
CTCCGACC | 0.458
CAACTCCG | 0.486
AGCTAAGC | -0.164
ATCCGCAA | 0.193
AACGTAGA | -0.0968
CTCTTGCC | -0.0784
AAACGGGC | 0.00361
TCACTCAA | -0.2
GCTTACCC | -0.23
ATATTTCG | 0.14
AAGTATGC | -0.23
ATGCCGTC | 0.219
GCTTAATA | -0.0998
ATGGTCTG | -0.143
CATTCGAA | -0.0389

Sequence | PBM E-score
ATTCGTTG | 0.0525
GATGGGAC | 0.195
GATGTAAC | 0.0353
CGGGAGCC | 0.0673
CCTGTCCG | 0.141
CCTGCTTC | -0.0852
CATATGCA | -0.109
GGAAGGCC | 0.199
GTGCAAAC | -0.0686
ACCCAAAG | -0.137
GTGTAGCA | -0.286
CGTCAACA | -0.131
AGCTTAGA | -0.142
AGGTGATA | -0.199
CAAGAGTG | -0.175
TACGAAGA | -0.146
AGCTTACT | -0.136
AAGGCAGC | -0.0879
ACATATTG | -0.277
CACCCGGG | 0.199
CCAGAAAG | 0.0257
CAGCAACA | 0.0587
ATCAATCG | -0.0159
AGGCACCC | -0.229
CCGGGCAC | 0.385

Sequence | PBM E-score
CGATGGTC | -0.126
ATTCGGAG | 0.422
CCTTGTAG | -0.13
CATAATGA | -0.0996
GGGCCCGA | 0.244
GAAGTCAC | -0.0697
CTCTCAAG | -0.0889
ATTGTGCA | -0.021
ATCGACTG | -0.0552
TATTTACA | -0.188
CTCCCCCC | -0.191
AGCTCTTC | 0.121
AATGTACG | -0.121
AAGACAAT | -0.0338
CCTTCTAC | -0.183
AGTATAGA | 0.0233
ACAGTTCC | 0.278
CGCGGCCG | 0.251
GTGCTTCA | -0.111
ACGCCCCA | 0.137
CTTCTTGC | -0.109
GGGAAGCA | -0.0458
CGCCAGCC | 0.153
ACACTGGC | -0.139
CGGCGGAC | 0.411

Sequence | PBM E-score
CGTTCCAG | -0.193
TACAGAGA | -0.221
GCAACTGC | 0.0356
CCAGAGAA | -0.162
ACTTGGGG | 0.0438
AATGCCCA | -0.203
ATCTCGGC | 0.354
GCCCATTA | -0.195
CAAAAAAC | -0.0175
GACAAACC | -0.0781
ACAATAAG | -0.0171
GATCCACA | -0.0592
AAATTCCG | 0.471
TGCCGGAA | 0.435
GCTGTTTA | -0.018
GACGACTA | -0.319
ACACTATC | 0.00097
TCACACCA | -0.134
CCTCTCCA | -0.351
CAGAATGC | 0.153
AGCCGGTC | 0.134
CGTCTTCA | 0.00371
ACGGGTGA | 0.138
GCCCACGC | -0.0457
CATAATTC | 0.075

Sequence | PBM E-score
ACGAGTCA | -0.285
AAATGTAC | -0.103
TAAACTAA | 0.0158
CGAAGAAA | 0.184
AGTGATCC | -0.0556
CCGGGAGA | 0.362
CCCCAGTA | 0.0299
GTCTTAAC | -0.296
CAATTTAC | -0.0357
ATAGGCTC | -0.0304
CCAAGAGC | -0.214
CCGAAACG | 0.278
CGTAGTGC | -0.0731
GATATGCC | 0.0319
CGAGAACA | 0.118
CCGTGGTC | 0.129
GGAAGCCA | 0.0617
CCGCACCA | 0.23
CCGAGCAA | 0.268
CAGATAGA | -0.201
CCAGCCAA | -0.0223
AGCTCACT | -0.215
AGTTCGTG | -0.0935
CGTTGCTA | -0.0591
CTTAACGA | -0.0439

Sequence | PBM E-score
CGTGTTGA | -0.173
AGCTATCG | -0.0675
CGCGGCAA | 0.303
GTACTTGA | -0.122
CCTCGTAG | -0.35
ACTACATG | -0.118
ATTTCATA | -0.0705
GTCAGGCA | -0.0616
ACAAAGAG | -0.197
CAGTCGGC | 0.272
CGGATACG | 0.274
ATCTACGG | 0.264
CAGTGATG | -0.338
AAAAAATC | 0.0685
GGGGGGAC | -0.209
CCGCTGAG | 0.115
ACTTGGAC | 0.0757
ACCTTCTC | 0.143
ACCTGCCG | -0.0458
AGACATAG | -0.00079
TCAATGAA | -0.219
AGCGGCTA | 0.1
